Experimental data published in PubChem BioAssay AID887 (National Center for Advancing Translational Sciences (NCATS), 2007).
Among all 74,000 compounds or so, about 1,100 (1.5%) were called active. Inconclusive means that the source gave no clear call. Such entries were picked first, then a sample of the others. The call rests on the fitted dose curve; in most records, active means well fitted inhibition curve with a large enough effect; inconclusive means small, poorly fitted or top-dose-only effect; inactive means no such curve, though single readings can be large or run the other way. Potencies of inconclusive entries are left out as doubtful fits.
Further: nearly all actives have a fitted effect of over 55% in size.
On the % scale 0 is the no-effect control and ±100 the full control effect; potency means the concentration at half of the fitted maximal effect; tags describe the fitted curve by direction and shape.

The compounds below were run against Polyunsaturated fatty acid lipoxygenase ALOX15 (Homo sapiens) (UniProt P16050) (assay: qHTS Assay for Inhibitors of 15-hLO (15-human lipoxygenase)). Details: purified 15hLO-1, xylenol orange hydroperoxide absorbance; activity change, negative = inhibition: at 57.1 µM (top of the series) unless noted.
Sequence of UniProt P16050 (P16050 whole entry, looked up): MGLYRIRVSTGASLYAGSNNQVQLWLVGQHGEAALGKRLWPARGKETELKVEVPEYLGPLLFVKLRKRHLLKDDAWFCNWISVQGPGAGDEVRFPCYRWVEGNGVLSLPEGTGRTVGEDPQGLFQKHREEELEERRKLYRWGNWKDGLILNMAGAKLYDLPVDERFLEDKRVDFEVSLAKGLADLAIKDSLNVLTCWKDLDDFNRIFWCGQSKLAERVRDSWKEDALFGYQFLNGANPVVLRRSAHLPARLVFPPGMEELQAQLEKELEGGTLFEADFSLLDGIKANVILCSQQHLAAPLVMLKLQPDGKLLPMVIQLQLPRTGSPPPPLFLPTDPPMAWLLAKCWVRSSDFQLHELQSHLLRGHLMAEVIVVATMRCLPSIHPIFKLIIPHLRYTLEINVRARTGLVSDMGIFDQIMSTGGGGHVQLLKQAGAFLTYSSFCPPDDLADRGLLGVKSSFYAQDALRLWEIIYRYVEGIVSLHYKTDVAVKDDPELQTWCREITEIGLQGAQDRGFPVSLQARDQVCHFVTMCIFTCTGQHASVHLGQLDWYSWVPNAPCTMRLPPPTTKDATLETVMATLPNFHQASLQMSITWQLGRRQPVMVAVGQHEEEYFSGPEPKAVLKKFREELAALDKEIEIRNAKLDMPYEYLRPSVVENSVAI
How it was run: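 Compounds were preincubated 15 min at room temperature with 40 nM purified human enzyme (25 mM Hepes pH 7.5, 0.01% Triton X-100); 50 uM arachidonic acid reacted 6 min. Fe-xylenol orange detection, 30 min, absorbance ratio 573/405 nm.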
With `Cn1cccc1Cc1nnc(SCC(=O)NC2CCCC2)n1CCc1ccccc1` the Potency was inconclusive [inhibitor, single point].
With `C/C(Cl)=C/Cn1c(SC(C)C)nc2c1c(=O)[nH]c(=O)n2C` the Potency was inconclusive [inhibitor, single point].
`CSc1ccc(C2C(C#N)=C(N)Oc3cc4c(cc32)OCO4)cc1` (stereo not drawn) was tested, and the Potency was inconclusive [inhibitor, partial curve].
`C=CCN1CC2CC3(COc4cc(C)cc(C)c4)C=CC2(O3)C1=O` (stereo not drawn) was tested, and the Potency was inconclusive [inhibitor, single point].
With `COc1ccc(CCn2c(-c3ccco3)nc3ccccc3c2=O)cc1OC` the Potency was active: 3.98 µM.
For `CCOc1ccc(-c2cc(CCCC(=O)NCCCOC)no2)cc1`, the Potency was “inactive”.
In the case of `COc1cccc(Cn2c(=O)c(C)nc3cnc(N4CCOCC4)nc32)c1`, the Potency is reported as “inactive”.
In the case of `COc1cccc(C(=O)CSc2nc3ccccc3n2CC(=O)N2CCOCC2)c1`, the Potency is reported as inconclusive [inhibitor, full curve].
For `CN(C)c1cccc(-c2nnc(SCCCC#N)o2)c1`, the Potency was inconclusive [inhibitor, single point].
With `CCCCOc1ccc(-c2c(C#N)c(N)nc(SCC(N)=O)c2C#N)cc1` the Potency was inconclusive [inhibitor, partial curve].
`COC(=O)c1c(C)oc2ccc(OC(=O)N3CCOCC3)cc12` was tested, and the Potency was “inactive”.
For `Cc1c(C)n(CC(O)CN2CCOCC2)c2ccccc12` (stereo not drawn), the Potency was inconclusive [inhibitor, partial curve].
For `COc1ccc(N2CCN(C(c3ccccc3OC)c3nnnn3C3CCCC3)CC2)cc1` (stereo not drawn), the Potency was inconclusive [inhibitor, single point].
In the case of `COc1ccc(OC)c(C2CC(=O)N3CN(c4cccc(Cl)c4)CSC3=C2C#N)c1` (stereo not drawn), the Potency is reported as inconclusive [inhibitor, partial curve].
In the case of `COc1ccc2cc(C#N)c(SCC(=O)N3CCCC3)nc2c1`, the Potency is reported as inconclusive [inhibitor, partial curve].
For `C=CCSC1=C(C#N)C(c2cccc(OC)c2)CC(=O)N1` (stereo not drawn), the Potency was “inactive”.
With `CC(=O)n1c2ccccc2c2nc(NC(C)C)sc21` the Potency was inconclusive [inhibitor, single point].
`CCOC(=O)N1CCN(c2cc3[nH]c(=S)[nH]c3cc2F)CC1` was tested, and the Potency was inconclusive [inhibitor, partial curve].
`COc1cccc(C(c2nnnn2Cc2ccccc2)N2CCN(C(=O)c3ccco3)CC2)c1OC` (stereo not drawn) was tested, and the Potency was inconclusive [inhibitor, single point].
`COc1ccc(S(=O)(=O)N2CCC(C(=O)Nc3nnc(CCN4CCCCC4)s3)CC2)cc1` was tested, and the Potency was inconclusive [inhibitor, full curve, poor fit].
For `CCN1CCC[C@H]1CNC(=O)c1c(O)c(Cl)cc(Cl)c1OC`, the Potency was “inactive”.
With `O=S1(=O)C=C(Sc2nc3ccccc3s2)c2ccccc21` the Potency was inconclusive [inhibitor, single point].
`COCc1cc(C)nc(SCC(=O)c2ccc(O)c(O)c2)c1C#N` was tested, and the Potency was active: 3.16 µM.
In the case of `Nc1c(C(=O)NCCN2CCOCC2)c2nc3ccccc3nc2n1-c1ccc2c(c1)OCO2`, the Potency is reported as inconclusive [inhibitor, partial curve].
For `Cc1c(Cl)ccc2c1NC(=O)[C@]21[C@@H]2C(=O)N(Cc3ccccc3)C(=O)[C@@H]2[C@@H]2CCCN21`, the Potency was inconclusive [inhibitor, single point].
With `CC(C)(C)OC(=O)N[C@@H](Cc1ccccc1)c1nnc(S(=O)(=O)Cc2ccccc2)o1` the Potency was inconclusive [inhibitor, partial curve].
For `N#CC1=C(N)Oc2n[nH]c(-c3cccs3)c2C1c1cccs1` (stereo not drawn), the Potency was inconclusive [inhibitor, partial curve].
`COc1ccc2[nH]c(=O)c(CN(Cc3ccco3)Cc3nnnn3Cc3ccccc3)cc2c1` was tested, and the Potency was inconclusive [inhibitor, single point].
For `CCN(CC)S(=O)(=O)c1ccc(Nc2nc3ccccc3n3nnnc23)cc1`, the Potency was inconclusive [inhibitor, full curve].
With `OC[C@H]1NC[C@H](O)[C@@H](O)[C@H]1O` the Potency was inconclusive [inhibitor, single point].
With `C=CC(C)(O)CCCC(C)CCCC(C)CCCC(C)C` (stereo not drawn) the Potency was active: 10 µM.
In the case of `CCOc1ccccc1C(=O)Nc1cc(Cl)ccc1O`, the Potency is reported as active: 10 µM.
In the case of `CCOc1cc(C2C(C#N)=C(N)SC(N)=C2C#N)ccc1OCCN1CCOCC1`, the Potency is reported as inconclusive [inhibitor, partial curve].
For `CCOC(=O)N1CCC2(CC1)C(C#N)=C(N)Oc1c2sc2nc(C)cc(C)c12`, the Potency was inconclusive [inhibitor, single point].
`CCOC(=O)N1CCN(C(=O)Nc2sc3nc4n(c(=O)c3c2C)CCC(C)CC4)CC1` (stereo not drawn) was tested, and the Potency was inconclusive [inhibitor, partial curve].
In the case of `CCc1ccc2[nH]c(=O)c(CN(CCCN3CCOCC3)C(=O)Nc3cccc(Cl)c3)cc2c1`, the Potency is reported as inconclusive [inhibitor, partial curve].
In the case of `CCOc1cc(CNc2ccccc2SC)ccc1O`, the Potency is reported as inconclusive [inhibitor, partial curve].
In the case of `Cc1nc(N2CCCC2)c2nnn(Cc3ccccc3Cl)c2n1`, the Potency is reported as inconclusive [inhibitor, single point].
In the case of `c1ccc(CCc2nn3c(C4COc5ccccc5O4)nnc3s2)cc1` (stereo not drawn), the Potency is reported as inconclusive [inhibitor, partial curve].
In the case of `C=CCC1C=CC(Oc2ccc(F)cc2C)C(CO)O1` (stereo not drawn), the activity change, negative = inhibition is reported as inactive: 0.614% [at 11.4 µM].
In the case of `COc1cccc(CNc2ccc(N3CCCCC3)cc2)c1OC`, the Potency is reported as active: 2 µM.
In the case of `Cc1nnc(SCCC(=O)Nc2nc(-c3ccccc3)ns2)s1`, the Potency is reported as inconclusive [inhibitor, partial curve].
With `CC(=O)NCCNc1nc(-c2cccnc2)nc2ccccc12` the Potency was “inactive”.
For `CCCCC[C@H](O)C=C[C@H]1[C@H](O)CC(=O)[C@H]1CCCCCCC(=O)O`, the Potency was “inactive”.
`CCOC(=O)c1sc(=S)n(-c2ccccc2OC)c1N` was tested, and the Potency was inconclusive [inhibitor, single point].
`COc1ccc(C(=O)c2ccccc2O)c(O)c1` was tested, and the Potency was inconclusive [inhibitor, single point].
With `O=C(CN1CCOCC1)Nc1ccc(Oc2ccc(NC(=O)CN3CCOCC3)cc2)cc1` the Potency was inconclusive [inhibitor, partial curve].
In the case of `Cc1ccc(N=c2oc3cc(O)ccc3cc2C(N)=O)cc1`, the Potency is reported as inconclusive [inhibitor, partial curve].
In the case of `O=S(=O)(/C=C/c1ccccc1)Nc1ccc(N2CCOCC2)cc1`, the Potency is reported as inconclusive [inhibitor, single point].
In the case of `O=C(c1ccccc1)N(Cc1ccccc1)c1ccccn1`, the activity change, negative = inhibition is reported as inactive: -3.23% [at 11.4 µM].
In the case of `N#Cc1cccc(-c2cc(NCc3cccs3)ncn2)c1`, the Potency is reported as inconclusive [inhibitor, single point].
With `Cc1cccc(C(C)C)c1-n1nnnc1-c1ccccc1` the Potency was inconclusive [inhibitor, single point].
In the case of `Nc1c(C(=O)N2CCOCC2)sc(=S)n1-c1ccccc1`, the Potency is reported as inconclusive [inhibitor, partial curve].
With `CCOC(=O)N1CCC(NC(=O)c2ccc3c(c2)sc2nc(-c4cccc(OC)c4)cn23)CC1` the Potency was inconclusive [inhibitor, partial curve].
For `COc1ccc(CNc2ncncc2-c2ccc(N(C)C)cc2)c(OC)c1`, the Potency was active: 20 µM.
In the case of `O=c1[nH]c2cc3c(cc2cc1C(c1nnnn1Cc1ccccc1)N1CCCc2ccccc21)OCO3` (stereo not drawn), the Potency is reported as inconclusive [inhibitor, partial curve].
In the case of `Cc1nn(CCc2nc(-c3ccco3)cs2)c2[nH]c(=O)cc(C(F)(F)F)c12`, the Potency is reported as inconclusive [inhibitor, partial curve].
`COc1cc2c(cc1OC)-c1cc(NC3CCCCCCC3)nc(=O)n1CC2` was tested, and the Potency was inconclusive [inhibitor, single point].
With `CN(C)CCCNC(=O)CC(c1ccccc1)c1ccccc1O` (stereo not drawn) the Potency was inconclusive [inhibitor, full curve].
In the case of `O=c1c2ccccc2nc(SCc2cn3ccsc3n2)n1-c1ccccc1F`, the Potency is reported as “inactive”.
With `N#Cc1c(NC(=O)c2ccc(Cn3cc(Br)cn3)o2)sc2c1CCCCCC2` the Potency was inconclusive [inhibitor, single point].
With `O=C(c1csnn1)N1CCC2(CC1)CN(c1ccccn1)C2` the Potency was “inactive”.
For `CNC(=O)c1ccc(-c2sc3nc(N4CCOCC4)c4c(c3c2N)CCCC4)o1`, the Potency was inconclusive [inhibitor, partial curve].
With `CCOC(=O)C(CC)Sc1nc2c(c(=O)[nH]c(=O)n2C)n1C/C=C(/C)Cl` (stereo not drawn) the Potency was inconclusive [inhibitor, single point].
For `COc1ccnc(CS(=O)c2nc3ccc(OC(F)F)cc3[nH]2)c1OC` (stereo not drawn), the Potency was inconclusive [inhibitor, single point].
In the case of `CCOC(=O)c1c(NS(=O)(=O)c2cccc(OC)c2)sc2c1CCC2`, the Potency is reported as inconclusive [inhibitor, single point].
For `COc1ccc(Nc2oc(COc3ccc(Cl)cc3)nc2C#N)cc1`, the Potency was inconclusive [inhibitor, single point].
In the case of `CC1(C)Cc2c(c(N3CCOCC3)nc3sc(-c4ccc(C(=O)O)o4)c(N)c23)CO1`, the Potency is reported as active: 20 µM.
